Test results as given in the supplement of paper PMC6135742.
Where “and” joins values, the source holds several entries; their conditions need not be identical. Identical values can stand only once. Counter-ions that a name gives are not always drawn. ± gives the standard deviation of the averaged measurements. The full ranking holds about 2,600 compounds; the median of “total cell number (DAPI+ nuclei) relative to DMSO vehicle control” is about -1.4, and the lowest 2% start at about -23. The list shows a part of the results.

test system: jimpy (Plp1 jimpy) mouse iPSC-derived oligodendrocyte progenitor cells; test: total cell number (DAPI+ nuclei) relative to DMSO vehicle control (SDs above negative control mean); higher = more surviving cells; conditions: 10 µM; 3 days

Row | SMILES | total cell number
1 | CC(=O)OCC(=O)[C@@]12OC(C)(C)O[C@@H]1C[C@H]1[C@@H]3C[C@H](F)C4=CC(=O)C=C[C@]4(C)[C@@]3(F)[C@@H](O)C[C@@]12C [Fluocinonide] | 4.92
2 | CSC(=N)NCCC[C@H](N)C(=O)O [S-Methyl-L-thiocitrulline acetate] | -0.614
3 | S=C(S)N1CCCC1 [Ammonium pyrrolidinedithiocarbamate] | -3.35
4 | NS(=O)(=O)c1cc2c(cc1Cl)NC(C1CC3C=CC1C3)NS2(=O)=O (stereo not given) [Cyclothiazide] | 0.585
5 | CN(c1ccccc1CNc1nc(Nc2ccc3c(c2)CC(=O)N3)ncc1C(F)(F)F)S(C)(=O)=O | -11.1
6 | Cc1cnc(-c2cc(N3CCN(C(=O)CCS(C)(=O)=O)CC3)ncc2Cl)c(C)c1 | -0.754
7 | Cc1c(CN2CCN(C(=O)[C@H](C)O)CC2)sc2c(N3CCOCC3)nc(-c3cnc(N)nc3)nc12 | -11.4
8 | CN1C(=O)CC[C@H]1c1cccnc1 [(-)-Cotinine] | -1.76
9 | CC(C)(CO)c1cc2cc(NC(=O)C3(c4ccc5c(c4)OC(F)(F)O5)CC3)c(F)cc2n1C[C@@H](O)CO | 1.48
10 | CC[C@@H]1C(=O)OC[C@@H]1Cc1cncn1C [(+)-Pilocarpine hydrochloride] | -1.32
11 | CC[C@@H]1C(=O)OC[C@@H]1Cc1cncn1C [Pilocarpine HCl] | -1.44
12 | CC[C@@H]1C(=O)OC[C@@H]1Cc1cncn1C [Pilocarpine nitrate] | -3.94
13 | CN1CCc2c(c3ccccc3n2Cc2ccc(C(=O)NO)cc2)C1 [Tubastatin A] | 6.4
14 | CN1CCc2c(c3ccccc3n2Cc2ccc(C(=O)NO)cc2)C1 [Tubastatin A HCl] | -7.34
15 | O=C(Nc1cc(C(F)(F)F)cc(C(F)(F)F)c1)Nc1c(Br)cc(Br)cc1-c1nn[nH]n1 | -1.73
16 | CCn1c(=O)[nH]c2cc(Cl)c(Cl)cc21 | -2.56
17 | COc1cc2nccc(Oc3ccc(NC(=O)NC4CC4)c(Cl)c3)c2cc1C(N)=O [Lenvatinib (E7080)] | -9.34
18 | CCC(C)(Oc1ccc(C2(c3ccc(OC(C)(CC)C(=O)O)cc3)CCCCC2)cc1)C(=O)O (stereo not given) [Clinofibrate] | 1.25
19 | C[C@@H](O[C@H]1OCCN(Cc2nn(P(=O)(O)O)c(=O)[nH]2)[C@H]1c1ccc(F)cc1)c1cc(C(F)(F)F)cc(C(F)(F)F)c1 [Fosaprepitant dimeglumine salt] | -3.79
20 | N[C@@H](Cc1c[nH]c2ccccc12)C(=O)O [L-Tryptophan] | -0.41
21 | Nc1cc(=O)[nH]c(N)n1 [2,4-Diamino-6-pyrimidinone] | -1.65
22 | OC[C@H]1O[C@@H](n2cnc3c(N[C@H]4CCC[C@@H]4O)ncnc32)[C@H](O)[C@@H]1O | 0.458
23 | Cc1ncc(-c2ccnc(Nc3ccc(S(C)(=O)=O)cc3)n2)n1C(C)C | -9.56
24 | COC1(C2=NCCN2)COc2ccccc2O1 (stereo not given) | -0.239
25 | CS(=O)(=O)OCCCCOS(C)(=O)=O [Busulfan] | -0.973
26 | O=C(/C=C/c1ccc(O)cc1)c1ccc(O)cc1O [Isoliquiritigenin] | -3.58 ± 1.2
27 | OCc1c[nH]c2ccccc12 [Indole-3-carbinol] | -0.339

Row | SMILES | total cell number
28 | N#CCNC(=O)c1ccc(-c2ccnc(Nc3ccc(N4CCOCC4)cc3)n2)cc1 | -12.5
29 | NC(=O)c1cccc(-c2cccc(OC(=O)NC3CCCCC3)c2)c1 | -0.118
30 | Cc1[nH]c(=O)c(C#N)cc1-c1ccc2nccn2c1 [Olprinone hydrochloride] | -1.44
31 | CC(=O)O[C@H]1C(=O)[C@@]2(C)[C@H]([C@H](OC(=O)c3ccccc3)[C@]3(O)C[C@H](OC(=O)[C@H](O)[C@@H](NC(=O)c4ccccc4)c4ccccc4)C(C)=C1C3(C)C)[C@]1(OC(C)=O)CO[C@@H]1C[C@@H]2O [Paclitaxel] | -11.8
32 | N=C(N)c1ccc(N)cc1 [4-Aminobenzamidine dihydrochloride] | -0.771
33 | CCCN(CCC)CCc1cccc2c1CC(=O)N2 [Ropinirole HCl] | -0.778
34 | CCCN(CCC)CCc1cccc2c1CC(=O)N2 [Ropinirole hydrochloride] | -1.07
35 | COc1cccc2c1C(=O)c1c(O)c3c(c(O)c1C2=O)C[C@@](O)(C(=O)CO)C[C@@H]3O[C@H]1C[C@H](N)[C@@H](O)[C@H](C)O1 [Epirubicin HCl] | 51.3
36 | Cc1nc2ccccn2c(=O)c1CCN1CCC(C(=O)c2ccc(F)cc2)CC1 [Pirenperone] | -4.23
37 | CSc1nc2cc(Cl)c(Oc3cccc(Cl)c3Cl)cc2[nH]1 [Triclabendazole] | -0.896
38 | CCC(=O)c1ccc2c(c1)N(CCCN(C)C)c1ccccc1S2 [Propionylpromazine hydrochloride] | -5.65
39 | Nc1ccc(-c2ccc3ncc4ccc(=O)n(-c5cccc(C(F)(F)F)c5)c4c3c2)cn1 [Torin 2] | -11.1
40 | CCCn1c(=O)c2[nH]c(C3CCCC3)nc2n(CCC)c1=O [8-Cyclopentyl-1,3-dipropylxanthine] | -1.91
41 | N/C(=N\C(=O)c1nc(Cl)c(N)nc1N)NCc1ccccc1 [Benzamil hydrochloride] | -2.91
42 | O=C(CCNNC(=O)c1ccncc1)NCc1ccccc1 [Nialamide] | -1.28
43 | CCCCCCCCCCCCCCCCn1cc[n+](Cc2ccccc2)c1C | -16.7
44 | C#Cc1cccc(Nc2ncnc3cc(OCCOC)c(OCCO)cc23)c1 | -11.5
45 | Cn1cnc2c(F)c(Nc3ccc(Br)cc3F)c(C(=O)NOCCO)cc21 | -6.75
46 | Nc1nc(N)c(N=O)c(OCC2CCCCC2)n1 | -6.36
47 | NC(=O)c1cnccn1 [Pyrazinecarboxamide] | -1.25
48 | NC(=O)c1cnccn1 [Pyrazinamide] | -1.15
49 | O=C(Nc1ccc(S(=O)(=O)Nc2ccccc2Cl)c(Cl)c1)c1ccccn1 | 0.173
50 | Oc1ccc(-c2nc(-c3ccc(F)cc3)c(-c3ccncc3)[nH]2)cc1 | -6.72 and -11.4
51 | Cc1ccc(C(=O)Nc2ccc(CN3CCN(C)CC3)c(C(F)(F)F)c2)cc1C#Cc1cnc2[nH]ncc2c1 | -16.3
52 | O=C(NC[C@H](O)CO)c1ccncc1Nc1ccc(I)cc1F | -17.5
53 | C=C[C@H]1CN2CC[C@H]1C[C@H]2[C@H](O)c1ccnc2ccc(OC)cc12 [Quinine sulfate] | -2.52
54 | CCOc1cc(C(=O)Nc2ccc(Cl)c(-c3nc4ccccc4[nH]3)c2)cc(OCC)c1OCC | -2.15

Row | SMILES | total cell number
55 | CC1(C)S[C@@H]2[C@H](NC(=O)[C@H](N)c3ccccc3)C(=O)N2[C@H]1C(=O)O [Ampicillin Trihydrate] | -0.253
56 | CC1(C)S[C@@H]2[C@H](NC(=O)[C@H](N)c3ccccc3)C(=O)N2[C@H]1C(=O)O [Ampicillin sodium] | -1.95
57 | Cc1ccccc1C(C(=O)NC1CCCCC1)N(C(=O)Cn1ccnc1C)c1cccc(F)c1 (stereo not given) | -4.27
58 | O=c1n(CCCN2CCN(c3cccc(Cl)c3)CC2)nc2ccccn12 [Trazodone HCl] | -1.83
59 | O=c1n(CCCN2CCN(c3cccc(Cl)c3)CC2)nc2ccccn12 [Trazodone hydrochloride] | -2.33
60 | O=C(O)c1cc(=O)[nH]c(=O)[nH]1 [Orotic acid (6-Carboxyuracil)] | -0.896
61 | C[C@]12CCC(=O)C=C1[C@@H]1C[C@@H]1[C@H]1[C@@H]3[C@@H]4C[C@@H]4[C@@]4(CCC(=O)O4)[C@@]3(C)CC[C@@H]12 [Drospirenone] | -1.26
62 | COc1ccc2cc([C@H](C)C(=O)O)ccc2c1 [Naproxen] | -0.0804
63 | COc1ccc2cc([C@H](C)C(=O)O)ccc2c1 [(-)-Naproxen sodium] | -1.87
64 | N#Cc1cc(CN2CCC(Nc3ncnc4sc(Cl)cc34)CC2)ccc1F | -7.89
65 | Nc1ncnc2c1ncn2[C@@H]1O[C@H](COP(=O)(O)OP(=O)(O)OP(=O)(O)OP(=O)(O)OC[C@@H]2O[C@H](n3cnc4c(N)ncnc43)C(O)[C@@H]2O)[C@H](O)C1O (stereo not given in full) [P1,P4-Di(adenosine-5')tetraphosphate triammonium] | -0.947
66 | Nc1cc(N2CCCCC2)nc(N)[n+]1[O-] [Minoxidil] | -1.83
67 | OC1(c2ccc(Cl)cc2)CCN(Cc2c[nH]c3ccccc23)CC1 | -5.17
68 | Cc1ncc([N+](=O)[O-])n1CC(C)O (stereo not given) [Secnidazole] | -1.04
69 | OCCn1cc(-c2cnc3nnn(Cc4ccc5ncccc5c4)c3n2)cn1 | 3
70 | O=C(O)c1cc2cc(Cc3cccnc3)ccc2o1 [Furegrelate sodium] | -0.806
71 | NC(=O)c1ccc(I)c([N+](=O)[O-])c1 [Iniparib (BSI-201)] | -4.49
72 | O=C(O)c1cc(/N=N/c2ccc(S(=O)(=O)Nc3ccccn3)cc2)ccc1O [Sulfasalazine] | -0.33
73 | c1ccc(C2CN3CCSC3=N2)cc1 (single isomer, unassigned; (-)) [(-)-Tetramisole hydrochloride] | -0.37
74 | c1ccc(C2CN3CCSC3=N2)cc1 (single isomer, unassigned; (-)) [(-)-Tetramisole] | -1.04
75 | CN/C(=N\CCSCc1nc[nH]c1C)NC#N [Cimetidine] | -0.0647 ± 3.1
76 | COc1ccc(C2=N[C@@H](c3ccc(Cl)cc3)[C@@H](c3ccc(Cl)cc3)N2C(=O)N2CCNC(=O)C2)c(OC(C)C)c1 [Nutlin-3] | -23.5
77 | O=c1oc2cc(O)ccc2s1 [Tioxolone] | -2.27
78 | COc1cc2ncnc(Nc3cccc(Cl)c3)c2cc1OC [Tyrphostin AG 1478] | -5.25
79 | COc1cc2ncnc(Nc3cccc(Cl)c3)c2cc1OC [AG-1478 (Tyrphostin AG-1478)] | -7.87
80 | C[C@]12CCC3=C4CCC(=O)C=C4CC[C@H]3[C@@H]1CC[C@@]2(O)CC#N [Dienogest] | -2.34
